The record followed here is ChEMBL document CHEMBL1157539, “Thousands of chemical starting points for antimalarial lead identification” (Nature, 2010).

Structures are written as SMILES. The full ranking holds about 13,000 compounds; the median of “IFI” is about 4, and the highest 2% start at about 17. This is one part of the list.

A short description of this assay: GSK_TCMDC: Inhibition Frequency Index (IFI). The number of non-kinase HTS assays where a compound showed > 50 % inhibition, expressed as a percentage of the number of such assays in which the compound was tested (-0 is zero). In kind it is functional.
Consider `Cc1ccccc1C1CCN(C2CCC(NC(=O)c3csc(-c4cccc(Cl)c4)n3)CC2)CC1` (stereo not given), for which the IFI is 3.57%. The result for `Cc1nc(Nc2ccncc2)cc(-c2ccncc2)n1` reads -0%; that for `N#Cc1ccccc1S(=O)(=O)N1CCCC(CNC(=O)[C@H](CC2CCCCC2)NC(=O)c2cc3ccccc3s2)C1` (stereo not given in full), 1.9%. The result for `Cc1[nH]c(C)c(-c2ccc(Oc3ccccc3)cc2)c(=O)c1Br` reads 6.11%; that for `CC1(C)N=C(N)N=C(Nc2ccc(Cl)cc2)N1`, 0.76%; that for `CCOC(=O)c1cc(C(=O)NCCCCN2CCC(c3ccc4c(c3OC)CCCC4)CC2)ccc1-c1ccc(C(F)(F)F)cc1`, 11.7%.

`c1cncc(-c2cc(N3CCCCC3)nc(-c3ccncc3)n2)c1` returned an IFI of 1.52%.

For `Cc1ccccc1N1CCN(c2ccc(C(=O)NC(C)C)cn2)CC1`, the IFI came out at 2.04%.

Compound `CC(=O)Nc1ccc(S(=O)(=O)NC2=NC(=N)N(OCc3ccc(Cl)c(Cl)c3)C(C)(C)N2)cc1` displayed an IFI of 1.49%. The result for `COc1cc2c(cc1OC)CN(CCc1ccc(NC(=O)c3cc4cc(Cl)ccc4[nH]3)cc1)CC2` reads 5.26%; that for `Cc1cc(N/N=C/c2ccccc2[N+](=O)[O-])c2ccccc2n1`, 2.8%. On to `COc1ccc(O)c(C(=O)c2cc(C#N)c(=O)n(-c3ccc(Oc4ccccc4)cc3)c2)c1`, for which the IFI stood at 3.52%. Regarding `O=C(Nc1ccc([N+](=O)[O-])cc1O)Nc1ccccc1Oc1ccccc1`, the IFI amounted to 17%. Compound `O=C(NC1CCCCN(Cc2ccccc2O)C1)c1ccc(Cl)c(Cl)c1` (stereo not given) came in with an IFI of 3.4%. In turn, `O=C(Nc1ccc(OC2CCN(Cc3ccc(F)cc3)CC2)c(Cl)c1)c1ccoc1` yielded an IFI of 1.61%. For `CCc1nc2nc(C)cc(Nc3ccc(F)c(Cl)c3)n2n1`, the IFI is -0%. To `COc1ccc2ncc(F)c([C@H](O)CN3CCC(NCc4ccc5c(c4)NC(=O)CS5)CC3)c2c1` belongs 2.24%; to `O=C(/C=C/c1ccc(Cl)c(Cl)c1)NCCCCN1CCC(c2c[nH]c3ccccc23)CC1`, 8.16%; to `CCCCNC(=N)Nc1ccc(OCCCOc2ccc(NC(=N)NCCCC)cc2)cc1`, 2.99%. To `CCNc1cc(C(=O)N[C@@H](Cc2ccccc2)[C@H](O)CNC(C)(C)Cc2cccc(Cl)c2)cc(N2CCCCS2(=O)=O)c1` belongs 3.6%; to `O=C1CCCN1CCCNCc1ccc(-c2ccc(-c3nc4cc(C(F)(F)F)ccc4[nH]3)s2)cc1`, 6.67%; to `CC(C)CC(=O)NC1CCN(Cc2c(-c3cccs3)nc3ccccc3c2C(=O)N[C@@H](C)C2CCCCC2)CC1`, 2.86%.

Consider `Nc1nc(O)c2cc(CN(C=O)c3ccc(C(=O)N[C@@H](CCC(=O)O)C(=O)O)cc3)ccc2n1`, for which the IFI turned out to be 0%. To `O=C(c1cc(OC(F)(F)F)ccc1O)N1CCN(c2ccccc2)CC1` belongs -0%; to `Cc1ccc(NC(=O)c2cn(-c3ccccc3)nc2-c2ccc(F)cc2)cc1[N+](=O)[O-]`, 0.65%. The result for `N#Cc1cccc(NC(=O)NC2CCN(CCCCCNC(=O)C3CC3c3ccc(Cl)c(Cl)c3)CC2)c1` (stereo not given) reads 7.55%; that for `C[C@@H](CC1CCCCC1)OC(=O)N(C)[C@H]1CCN(C#N)C1`, 11.2%. The result for `Cc1cccc2nc(-c3ccc(-c4cccc(CN5CCCC(O)C5)c4)s3)[nH]c12` (stereo not given) reads 0%. Regarding `CCCCNCc1ccc(-c2nc(CN(CCCn3ccnc3)C(=O)NC3CC3c3ccccc3)cs2)cc1` (stereo not given), the IFI came to 5.96%. To `Cc1cccc2nc(-c3ccc(-c4ccc(CNCc5cnn(-c6ccccc6)n5)cc4)s3)[nH]c12` belongs 4.92%. To `Cc1nc(SCC(=O)N2CCCC2=O)c2c(C)c(C)sc2n1` belongs 1.9%. The result for `COc1cccc(Nc2nc(Nc3cccc(C#N)c3)cc(C(F)(F)F)n2)c1` reads 4.76%. In turn, `O=C(Nc1cccc(-c2ccc(-c3nc4cc(F)ccc4[nH]3)cc2)c1)c1ccncc1` returned an IFI of 10.3%. To `Cc1cc(F)ccc1[C@H]1CNCCN1C(=O)N(C)C(C)(C)c1cc(C(F)(F)F)cc(C(F)(F)F)c1` belongs 4.72%; to `N#Cc1ccc(-c2ccc(C(=O)NCCCCN3CCC(c4cn(CCO)c5ccccc45)CC3)cc2)cc1`, 3.64%. As to `CCCCCN1CCCC1CNS(=O)(=O)c1ccc(C(=O)Nc2ccc(C(F)(F)F)cc2)cc1` (stereo not given), the IFI stood at 2.41%. To `O=C(Nc1cccc(CN2CCCN(Cc3ccc(O)cc3)CC2)c1)c1cccc(Cl)c1` belongs 2.68%; to `O=C(c1ccco1)c1cn(CCOc2ccccc2)c2ccccc12`, 7.55%. The result for `O=C(NC1CC1)c1cnc(N2CCN(Cc3c(F)cccc3Cl)CC2)c(Cl)c1` reads 6.12%; that for `COc1ccc(-c2cnc3[nH]cc(-c4ccc(CCC(=O)O)cc4)c3c2)cn1`, 1.98%. The result for `c1ccc(-c2cccc(-c3ccccn3)n2)nc1` reads 5.59%; that for `Cc1c(C(=O)Nc2cc(Sc3ccc(F)cc3)cc([N+](=O)[O-])c2)sc2ncn(Cc3cccc(F)c3)c(=O)c12`, 0.88%; that for `Cc1cc(NC(c2ccc(Cl)cc2)c2ccc3cccnc3c2O)no1` (stereo not given), 8.22%.

As to `Cc1nc(-c2ccccc2)nc(N2CCN(C(=O)c3ccco3)CC2)c1Cc1ccccc1F`, the IFI was found to be 0%.

The compound `O=S(=O)(NC1CCN(c2ccnc3cc(Cl)ccc23)C1)c1ccc(C(F)(F)F)cc1` (stereo not given) returned an IFI of 6.06%. In turn, `O=C(N[C@H](Cc1ccc(Cl)cc1)C(=O)N1CCN(c2ccnc3cc(Cl)ccc23)CC1)[C@H]1Cc2ccccc2CN1` had an IFI of 4.17%. To `Oc1ccccc1CN1CCCC(COC(c2ccc(F)cc2)c2ccc(F)cc2)C1` (stereo not given) belongs 7.81%. The result for `O=C(/C=C/c1ccc(Cl)c(Cl)c1)NC1CCC(CN2CCC(Cc3cc4ccccc4[nH]3)CC2)CC1` (stereo not given) reads 10.7%. As to `COc1ccc(CCOc2c(C)nc(N)nc2N)cc1OC`, the IFI turned out to be 0.72%. To `CCCCCCn1c(Sc2ccc(C#N)c([N+](=O)[O-])c2)nnc1-c1ccccc1` belongs 7.86%. To `CCCCCCNC(=O)C1Cc2c([nH]c3cc(Cl)ccc23)C2(CCN(CCC)CC2)N1` (stereo not given) belongs 2.86%; to `COc1ccc(-c2c(-c3ccc(OCc4ccccc4)cc3O)n[nH]c2C(F)(F)F)cc1`, 6.82%. The result for `COc1cccc(C(=O)NC(c2ccc(Cl)cc2Cl)c2cc(Cl)c3cccnc3c2O)c1` (stereo not given) reads 3.92%. In the case of `O=[N+]([O-])c1ccc(Nc2nc(N/N=C/c3ccc(-c4ccc([N+](=O)[O-])cc4)o3)nc(Nc3ccccc3)n2)cc1`, the IFI came to 0.8%.

`CCCCCCCC1CCN(C[C@H](O)c2ccnc3ccc(OC)cc23)CC1` gave an IFI of 6.87%. Compound `COc1cccc(-c2nn(C)c3sc(C(=O)NCCN(C)Cc4ccccc4)cc23)c1` showed an IFI of 2.11%.

The compound `CC(C)C(C)(C#N)NC(=O)CSc1nc2ccc([N+](=O)[O-])cc2s1` (stereo not given) showed an IFI of 0.71%. To `O=C(Nc1cccc(-c2ccc(-c3nc4ccccc4[nH]3)cc2)c1)Nc1ccc(F)c(F)c1F` belongs 4.85%; to `COc1ccc2nccc([C@@H](O)CN3CCC(NC/C=C/c4cccnc4)CC3)c2c1`, -0%; to `Cc1cc(N(C)C)nc(Nc2ccc(NC(=O)c3cccc(F)c3)cc2)n1`, 2.78%. To `COC(=O)C1=CNC=C(C(=O)OC)C1c1ccc(Cl)c([N+](=O)[O-])c1` belongs 5.59%; to `CN(C)CCNCc1ccc(-c2cccc(-c3nc4ccccc4[nH]3)c2)cc1`, 7.69%; to `CCNc1cc(C(=O)N[C@@H](Cc2ccccc2)[C@H](O)CNCc2cccc(-n3ccnc3)c2)cc(N2CCCC2=O)c1`, -0%. On to `COc1ccc(C=NNc2ccnc3cc(F)c(C)cc23)c2ccccc12`, for which the IFI is 0.75%. The result for `CCCNc1ccc(-c2cc(C(N)=O)c3[nH]cc(C4CCN(S(=O)(=O)CC)CC4)c3c2)cn1` reads 6.67%; that for `CCCN(c1ccc(O)c(CN2CCCCC2)c1)c1ccc([N+](=O)[O-])cn1`, 0%; that for `c1ccc(CC2=NCCN2)cc1`, 0.71%. The result for `COc1ccc2nccc([C@@H](O)CN3CCC(NCc4nc5ccccc5[nH]4)CC3)c2c1` reads 1.44%; that for `COc1ccc2c(NN=Cc3ccc(F)cc3)ccnc2c1`, 6.92%. To `O=C(Nc1cccc(C(F)(F)F)c1)Nc1ccc(Cl)c(C(F)(F)F)c1` belongs 16.7%; to `O=C(NCc1ccccc1[S+]([O-])c1ccccc1CO)C(F)(F)F` (stereo not given), 3.01%. As to `O=C(c1ccccc1[N+](=O)[O-])N(Cc1ccccc1)c1ccccn1`, the IFI was -0%.

Take `CN1CCC(N2CCN(c3ccc4c(=O)nc(CCc5cccc(F)c5F)n(CC(=O)N(C)Cc5ccc(-c6ccc(C(F)(F)F)cc6)cc5)c4n3)CC2)CC1`: the IFI is 13.2%.

As for `O=C(N[C@H]1CCN(Cc2ccc(OCCCN3CCCCC3)cc2)C1)c1cc(Cl)cc(Cl)c1`, the IFI worked out at 5.44%.

Take `COc1cccc(OCC2CCCN(CCCCNC(=O)c3ccc(NC(=O)c4ccc(Cl)cc4)cc3)C2)c1` (stereo not given): the IFI came to 7.02%. The result for `CC(=NNC(S)=Nc1ccccc1Cl)c1ccccn1` reads 6.57%; that for `CN1CCN(c2ccnc3ccc(NC(=O)Nc4ccc(Cl)c(Cl)c4)cc23)CC1`, -0%. To `Cc1ccccc1C1CCN(C2CCC(NC(=O)c3cc(-c4ccc(Cl)cc4)cs3)CC2)CC1` (stereo not given) belongs 22.4%. `CNC(=O)c1cnc(Nc2ccc(OCC(O)CN(C)C)cc2)nc1Nc1cccc([N+](=O)[O-])c1` (stereo not given) had an IFI of 4.96%. To `N#Cc1cccc(-c2nc(NCc3cccc(C(F)(F)F)c3)nn2-c2cccc(C(F)(F)F)c2)c1` belongs 1.43%; to `Fc1ccc2ncc(Cl)c(CCN3CCC(NCc4cc5c(cn4)OCCO5)CC3)c2c1`, 0.72%; to `CC1(CCc2ccccc2)N=C(N)N(Cc2ccccc2)C(=O)C1c1ccc(Cl)c(Cl)c1` (stereo not given), 19.2%. As to `OCC1CCN(Cc2ccc(-c3ccc(-c4nc5cc(C(F)(F)F)ccc5[nH]4)s3)cc2)CC1`, the IFI was 3.92%.

Turning to `Nc1nnc(-c2ccc(Cl)c(Br)c2)c(N)n1`, the IFI was 2.01%. In the case of `O=C(NC1CCCCC1)N(Cc1ccc(-c2cccc(CNCc3ccc4c(c3)OCO4)c2)cc1)C1CCN(Cc2ccccc2)CC1`, the IFI was determined as 6.98%. The compound `COc1ccccc1CCCN1C(=O)C(c2ccccc2)(c2ccccc2)N=C1N` displayed an IFI of 22.3%. To `Cc1ccc2c(=NN=Cc3cccc(Cl)c3)cc(C)[nH]c2c1` belongs 10.1%. In turn, `CCc1cc(Br)c2c(c1)C(NCCCNc1cc(=O)c3ccccc3[nH]1)CCN2` (stereo not given) gave an IFI of 4.83%. To `COc1ccc2nccc(NCC3(O)CCN(CC(O)c4ccc5c(c4)NC(=O)CS5)CC3)c2n1` (stereo not given) belongs 0%.

For the compound `CCCCCCCN1CC[C@@H](CCCc2ccnc3ccc(OCCN4CCNCC4)cc23)[C@@H](CC)C1`, the IFI worked out at 9.49%.
